# Source: PubChem BioAssay AID686978 (National Center for Advancing Translational Sciences (NCATS), 2013)
# Out of some 420,000 compounds screened, about 64,000 (15%) were called active. Inconclusive results, whose numbers are uncertain, are shown with a selection of clear calls. Calls come from the whole dose curve; as a rule, active = well fitted inhibition curve with a large enough effect; inconclusive = small, poorly fitted or top-dose-only effect; inactive = flat fitted curve, though single readings scatter. No potency is given beside an inconclusive call; the fits are too rough.
# Assay: qHTS for Inhibitors of human tyrosyl-DNA phosphodiesterase 1 (TDP1): qHTS in cells in absence of CPT; note: nearly all actives have a fitted effect of over 55% in size
# Conditions: DT40 Tdp1-/- hTDP1 cells, no CPT, ATP luminescence, 48 h; activity change, negative = growth inhibition: at 46.2 µM (top of the series) unless noted
# Procedure, shortened: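 No-CPT arm: Tdp1-/-;hTDP1 DT40 cells (400/well) plus compounds, incubated ≥48 hr at 37 °C. Readout CellTiter-Glo luminescence.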
# % is set by controls: 0 for no effect and ±100 for the full control effect; potency is the fitted concentration of half-maximal effect; tags give direction and shape of the fitted curve.
Structure (SMILES),"activity change, negative = growth inhibition",Potency
Nc1c(-c2ccccc2)cnn1-c1ccc(C(=O)O)cc1,inactive: -38.2%,–
O=C1CCC(/C=C/c2ccccc2)=NN1Cc1ccccc1Cl,inconclusive: -30.9% [inhibitor],–
CC(C)S(=O)(=O)c1cnc(-c2ccccn2)nc1N,inactive: -14.8%,–
O=C(CSc1nc2ccc(Nc3nc(N4CCOCC4)nc(N4CCOCC4)n3)cc2s1)Nc1ccccc1Cl,–,"inconclusive [inhibitor, single point]"
Cn1nc(C(=O)Nc2c(-c3ccccc3)nc3sccn23)c2ccccc2c1=O,–,active: 13 µM
COc1ccc([N+](=O)[O-])cc1NC(=O)C(C)Sc1nc(-c2ccccc2)cs1 (configuration not stated),–,"inconclusive [inhibitor, partial curve, poor fit]"
Cc1cccc(NC(=O)Cn2nnc(-c3ccc(CN4CCCC4)cc3)n2)c1C,–,"inconclusive [inhibitor, single point]"
C/C(=N\OCC(=O)OCC(=O)N(Cc1ccccc1)C(C)(C)C)c1ccc2c(c1)OCO2,inactive: -9.59%,–
COc1ccc(N2CCN(C(=S)Nc3cccc(C)c3)CC2)cc1,inactive: -12.5%,–
CCOC(=O)c1ccc(N2C(=O)c3n[nH]c(-c4cccs4)c3C2c2cccc(O)c2)cc1 (configuration not stated),–,active: 20.6 µM
Clc1ccc(-c2nc3ncccn3c2Nc2ccc3c(c2)OCCO3)cc1,–,"inconclusive [inhibitor, single point]"
COCCNC(=O)C(=O)N/N=C/c1ccc(C(=O)OC)cc1,inactive: -0.135%,–
CCOc1ccc(C2=CC(c3ccccc3)n3ncnc3N2)cc1 (configuration not stated),inactive: -26.4%,–
CCC(Sc1ccccn1)C(=O)Nc1cccc([N+](=O)[O-])c1 (configuration not stated),–,"inconclusive [inhibitor, single point]"
Cc1ccc(Cl)cc1N1CCN(C(=O)c2ccc3nc[nH]c3c2)CC1,–,"inconclusive [inhibitor, single point]"
CCCCN(Cc1cc2ccccc2[nH]c1=O)S(=O)(=O)c1ccc(C)cc1,–,active: 23.1 µM
CCOC(=O)CCCN(c1[nH]c(C)c(C)c1C#N)S(=O)(=O)c1ccc(C)cc1,–,"inconclusive [inhibitor, partial curve, poor fit]"
COc1ccc(NC(=O)[C@@H]2[C@@H]3C(=O)N(C4CCCCC4)C(=O)[C@@H]3C3c4ccccc4C=CN32)cc1 (some centres not stated),–,"inconclusive [inhibitor, single point]"
O=C(CCC1N=C2c3ccccc3N=C(SCc3ccc(F)cc3)N2C1=O)N1CCN(c2ccccc2)CC1 (configuration not stated),–,active: 25.9 µM
O=C(c1ccoc1)N1CCN(c2cc(-c3cccnc3)nc3cc(-c4cccc(Cl)c4)nn23)CC1,–,active: 7.31 µM
CCOc1ccc(/C=C(\C#N)C(=O)Nc2sc3c(c2C(=O)OC)CCC3)cc1OC,inactive: 7.11%,–
O=C(NCC(O)c1ccc([N+](=O)[O-])cc1)Nc1ccccc1 (configuration not stated),inactive: -1.43%,–
C=CCn1c2ccccc2c2nnc(SCCCn3c(=O)[nH]c4ccccc43)nc21,–,active: 13 µM
COc1ccc(CCNC(=O)c2cc3c(=O)n4ccccc4nc3n(Cc3ccco3)c2=N)cc1OC,–,active: 13 µM

Structure (SMILES),"activity change, negative = growth inhibition",Potency
CC1(C)C(CSc2nc3ccccc3[nH]2)C1(Cl)Cl (configuration not stated),–,"inconclusive [inhibitor, single point]"
CCOc1cc(C(=O)NCc2ccccc2)ccc1OCC(=O)N1CCOCC1,inactive: 3.71%,–
CC(C)c1ccc(CNC(=O)c2ccc(N3CCCC3)c(NC(=O)NCc3ccc(F)cc3)c2)cc1,–,"inconclusive [inhibitor, single point]"
CCC(Sc1ccc2nnc(-c3ccc(F)cc3)n2n1)C(=O)OC (configuration not stated),–,"inconclusive [inhibitor, single point]"
O=C(N/N=C/c1ccc(-c2ccccc2[N+](=O)[O-])o1)[C@H]1C[C@@H]1c1ccccc1,–,"inconclusive [inhibitor, single point]"
Cc1ccc(CNC(=O)CCc2c(C)c3cc4c(C)coc4cc3oc2=O)cc1,–,"inconclusive [inhibitor, single point]"
CC1=C(C(=O)Nc2cccc(F)c2)C2(CCCCC2)OC1=O,–,"inconclusive [inhibitor, single point]"
O=C(CCc1nc2ccccc2c(=O)[nH]1)N1CCN(S(=O)(=O)c2ccc(F)cc2)CC1,inactive: 4.81%,–
CC(C)C(=O)Nc1nnc(NC(=S)Nc2ccccc2)s1,–,"inconclusive [inhibitor, single point]"
COc1ccc(NC(=O)CN(C)C(=O)CNC(=O)c2ccc3c(c2)OCO3)cc1,inactive: -21.8%,–
CCOc1nc(OCC)c2[nH]c(C(=O)O)c(Br)c2n1,inactive: -2.04%,–
O=C(O)CC1(O)C(=O)N(Cc2ccccc2)c2ccccc21 (configuration not stated),inactive: 5.2%,–
CCN(CC)CCNC(=S)Nc1ccc2nc(N3CCOCC3)cc(C)c2c1,inactive: -26.5%,–
COc1ccc(C)cc1S(=O)(=O)Nc1cccc(-c2cn3cccnc3n2)c1,–,"inconclusive [inhibitor, single point]"
O=C(NCCc1ccccc1)C1CCCN(c2ncnc3c2nc2n3CCCCC2)C1 (configuration not stated),–,"inconclusive [inhibitor, single point]"
CN(C)C(CNC(=O)Cc1cccc(C(F)(F)F)c1)c1ccccc1 (configuration not stated),inactive: -28.3%,–
Cc1ccc(Cl)cc1NC(=O)C(NS(=O)(=O)c1ccc2c(c1)CCC(=O)N2)c1ccccc1 (configuration not stated),–,"inconclusive [inhibitor, partial curve]"
O=C(Nc1cccc(Cl)c1)Nc1nnc(-c2ccncc2)s1,–,active: 5.8 µM
O=C(c1cc(-c2cccc(Cl)c2)nc2ccccc12)N1CCCC1,–,"inconclusive [inhibitor, single point]"
Cc1ccc2c(c1)c1c(c(=O)n(-c3ccccc3C)c(=O)n1Cc1cccc(F)c1)n2C,–,active: 9.2 µM
O=C(c1ccc2c(c1)CCN2S(=O)(=O)c1ccccc1)N1CCN(c2ccccc2)CC1,–,"inconclusive [inhibitor, single point]"
Cc1ccc(C)c(N(CC(=O)NCc2ccco2)C(=O)CCC(=O)Nc2ccccn2)c1,inactive: -29.9%,–
COCc1c(C(=O)N2CCN(C(C)C)CC2)cnn1-c1nccc(-c2cc(C)sc2C)n1,inactive: -11.4%,–
